PMC4336329 (PLoS ONE, 2015)
The whole screen tested about 310,000 compounds, of which about 14,000 (4.5%) showed an effect of 50% or more. The effect is printed as a negative number. This is one part of the list.

Molecular target: human ether-à-go-go-related gene (hERG) potassium channel (human, UniProt Q12809)
Test: primary screen, population patch clamp on CHO cells stably expressing hERG
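Also: peak tail current of the secondary pulse compared with the same well before compound.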

Sequence of human ether-à-go-go-related gene (hERG) potassium channel (Q12809 whole entry, looked up): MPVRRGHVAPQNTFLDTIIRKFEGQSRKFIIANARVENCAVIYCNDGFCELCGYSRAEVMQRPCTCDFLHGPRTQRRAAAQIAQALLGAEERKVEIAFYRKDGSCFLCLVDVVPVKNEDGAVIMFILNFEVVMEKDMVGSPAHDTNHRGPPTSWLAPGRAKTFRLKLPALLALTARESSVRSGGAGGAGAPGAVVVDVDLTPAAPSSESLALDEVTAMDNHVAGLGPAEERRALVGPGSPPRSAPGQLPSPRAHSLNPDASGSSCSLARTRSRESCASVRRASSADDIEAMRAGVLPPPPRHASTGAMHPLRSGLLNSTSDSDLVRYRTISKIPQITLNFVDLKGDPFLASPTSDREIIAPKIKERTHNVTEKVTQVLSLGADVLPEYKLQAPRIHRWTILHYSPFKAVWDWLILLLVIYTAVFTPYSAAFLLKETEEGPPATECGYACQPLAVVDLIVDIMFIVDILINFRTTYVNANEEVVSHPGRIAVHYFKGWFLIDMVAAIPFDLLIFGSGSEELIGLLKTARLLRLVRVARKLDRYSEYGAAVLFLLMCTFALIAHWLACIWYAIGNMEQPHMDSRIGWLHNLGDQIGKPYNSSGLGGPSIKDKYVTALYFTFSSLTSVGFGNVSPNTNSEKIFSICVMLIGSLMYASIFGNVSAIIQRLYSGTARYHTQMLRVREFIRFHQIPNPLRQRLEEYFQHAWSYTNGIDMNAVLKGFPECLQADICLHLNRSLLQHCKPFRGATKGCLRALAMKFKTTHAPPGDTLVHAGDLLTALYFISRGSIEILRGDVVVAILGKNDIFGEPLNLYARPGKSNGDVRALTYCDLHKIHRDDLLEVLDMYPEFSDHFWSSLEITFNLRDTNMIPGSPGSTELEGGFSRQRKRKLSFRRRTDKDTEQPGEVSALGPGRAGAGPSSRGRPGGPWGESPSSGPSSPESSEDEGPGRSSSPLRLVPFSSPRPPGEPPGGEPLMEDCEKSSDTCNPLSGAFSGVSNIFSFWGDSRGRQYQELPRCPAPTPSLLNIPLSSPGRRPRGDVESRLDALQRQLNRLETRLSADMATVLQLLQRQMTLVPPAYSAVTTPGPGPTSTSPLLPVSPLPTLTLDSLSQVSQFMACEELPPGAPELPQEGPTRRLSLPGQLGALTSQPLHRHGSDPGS

SMILES | hERG current change (%, negative = inhibition) at 10uM
Cc1ccccc1C(=O)NNC(=O)CSc1nnc(C)n1-c1ccccc1 | 18.6%
COc1ccc(N(CC(=O)NCC2CCCO2)C(=O)CCC(=O)Nc2cc(C)on2)cc1OC (stereo not shown) | 15.5%
COc1cc(-c2cc(C(=O)Nc3ccc(S(N)(=O)=O)cc3)c3ccccc3n2)cc(OC)c1OC | 29.2%
Cc1nn(C)cc1/C=C/C(=O)c1ccccc1 | -6.77%
Cc1cc(-c2nn(-c3ccccc3F)cc2CN2CCN(c3ccccn3)CC2)c(C)s1 | 18.6%
Cc1ccccc1NC(=O)CCSc1nnnn1-c1ccccc1 | -5.33%
CCOC(=O)C1(Cc2ccccc2)CCN(Cc2cn[nH]c2-c2ccccc2)CC1 | -28.8%
CCN(CC)N=Nc1ccc(S(=O)(=O)Nc2nc(C)cc(C)n2)cc1 | 10.3%
CC(=O)Nc1cccc(NC(=O)CSc2nnc(NC(=O)c3ccco3)s2)c1 | 4.45%
O=C(NCc1ccccn1)Nc1cccc([N+](=O)[O-])c1 | 11.6%
O=C(O)C1=C[C@@H](c2ccccc2)C[C@@H](OCCCCO)O1 | 8.4%
COc1ccc(-n2nc(C(=O)NCC(=O)N3CCCC(C)C3)c3ccccc3c2=O)cc1Cl (stereo not shown) | 1.04%
COc1ccc(C(=O)COC(=O)CN2C(=O)C3C4C=CC(C5CC45)C3C2=O)cc1 (stereo not shown) | -36.7%
CCOC(=O)C1=NNC2(c3ccc(C)cc3)C(=O)N(c3ccc(Cl)cc3)C(=O)C12 (stereo not shown) | -8.79%
O=C(CSc1nnc(-c2cccnc2)n1Cc1ccccc1)N1CCOCC1 | 4.78%
Cc1c(C(=O)O)cccc1-n1c(C)cc(C=O)c1C | 21%
O=C(CCC(=O)NNC(=O)COc1ccccc1)NCc1ccccc1 | 16.3%
COc1ccc(NC(C)=O)cc1NC(=O)CSc1nnc(-c2cccnc2)n1C | 8.23%
O=C(/C=C/c1ccccc1[N+](=O)[O-])NCCc1ccc(F)cc1 | 0.179%
Cc1ccc(C(=O)CSc2nc3ccccc3c(=O)[nH]2)cc1 | -10.9%
O=C(C[n+]1cc(-c2ccccc2)n2c1CCC2)OCc1ccccc1.[Br-] | -15.2%
C=CCSC1=N/C(=C\c2ccc3c(c2)OCO3)C(=O)S1 | 4.4%

SMILES | hERG current change (%, negative = inhibition) at 10uM
COc1ccccc1N1CCN(S(=O)(=O)c2ccc3c4c(cccc24)C(=O)N3)CC1 | -11.8%
O=C(/C=C/c1ccco1)NCC(=O)N/N=C/c1ccccc1[N+](=O)[O-] | -23.1%
CCCCCC(=O)NC(=S)NC1C2CC3CC(C2)CC1C3 (stereo not shown) | 11.2%
Clc1ccccc1C1=Nn2c(nnc2-c2ccco2)SC1 | -25.4%
COc1cc(/C=C(\C#N)C(=O)NCC2CCCO2)ccc1OC(C)C (stereo not shown) | 4.21%
Cc1cc(C)nc(NS(=O)(=O)c2ccc(NC(=O)c3ccc(S(=O)(=O)N(C)C)cc3)cc2)n1 | 13.2%
CC(O)[C@H](NC(=O)C1(c2ccccc2)CCN(C(=O)OC(C)(C)C)CC1)C(=O)O (stereo partly shown) | 8.23%
CCOC(=O)c1cc(-c2ccc(Cl)s2)[nH]n1 | -5.26%
COc1ccc(S(=O)(=O)/N=C2/NC(=O)/C(=C\c3ccco3)S2)cc1 | -2.98%
COc1cc(C(c2nnnn2C(C)(C)C)N2CCN(C)CC2)cc(OC)c1OC (stereo not shown) | 6.02%
Cc1ccc(S(=O)(=O)Nc2ccc(C(=O)NCCCn3ccnc3)cc2)cc1[N+](=O)[O-] | -12.7%
CCOc1ccccc1NC(=S)Nc1ncccc1C | -0.779%
CCOC(=O)CCSCC(=O)Nc1cc(C)on1 | -3.91%
O=C(CSCc1cccc(Cl)c1)NCc1ccc2c(c1)OCO2 | -22.6%
N#Cc1nc(-c2ccco2)oc1NCc1ccccc1Cl | 10.4%
O=C(NCc1ccco1)c1ccc(Cl)c(S(=O)(=O)N2CCc3ccccc32)c1 | -20.6%
CC(=O)c1c[nH]c(C(=O)NC2CCCCCC2)c1 | 1.09%
C=C1C(=O)O[C@@H]2[C@H]1CC[C@H](C)[C@]1(O)CCC(=O)[C@@]21C | 27.4%
Nc1nnc(SCc2coc(-c3ccc(Cl)cc3)n2)s1 | 18.4%
O=C(Nc1ccccc1C(=O)NCc1ccccc1)c1ccccc1 | 3.65%
O=[N+]([O-])c1ccc(N2CCc3ccccc3C2)cc1 | -20.7%
CNC(=O)C(C)c1ncc(C(F)(F)F)cc1Cl (stereo not shown) | 17.6%

SMILES | hERG current change (%, negative = inhibition) at 10uM
O=c1c2[nH]c3ccccc3c2ncn1CCN1CCNCC1 | 4.97%
Cc1nn2c(N3CCOCC3)c3c(nc2c1-c1ccccc1)CCCC3 | -14.8%
O=C(N/N=C/c1cccnc1)c1cccc(F)c1 | 2.67%
CC(=O)c1c(C)[nH]c(C(=O)Nc2ccc(C)c(S(=O)(=O)Nc3ccc(C)cc3C)c2)c1C | -10.9%
CNC(=O)N(O)C1N(/N=C/c2ccc(C)cc2)C(=S)SC1(C)C (stereo not shown) | 24.5%
CC(NC(=O)c1cnccn1)c1ccc(S(N)(=O)=O)cc1 (stereo not shown) | -2.33%
Cc1ccc(CN2CCN(/N=C/c3ccc(N(C)C)cc3)CC2)cc1 | 10.1%
COc1ccc(C)cc1S(=O)(=O)N1CCCC(N2CCOCC2)C1 (stereo not shown) | 13.4%
CCc1ccc(CCC(=O)Nc2ncc(Cc3ccccc3Cl)s2)o1 | 8.75%
CCOc1ccc(C)cc1S(=O)(=O)Nc1cccnc1 | 14.2%
COc1ccc(C(=O)OCC[N+]2(C)CCCCC2)cc1.[I-] | 10.4%
O=C1Nc2c(c(=O)[nH]c(=O)n2-c2ccccc2)C1(Nc1ncccn1)C(F)(F)F (stereo not shown) | 11%
COc1cc(N/N=C(\C)c2ccc(O)c(C)c2)nc(-c2ccccc2)n1 | -5.76%
CC(C)c1ccc(NC(=O)CSc2n[nH]c(=O)n2Cc2ccco2)cc1 | -28.7%
[O-]/C(=C(\C(=S)Nc1ccccc1F)[n+]1ccccc1)c1ccc(OC(F)F)cc1 | 1.92%
COC(=O)C(NS(=O)(=O)c1ccc(C)cc1)c1ccccc1 (stereo not shown) | 1%
CC(C)c1nccn1S(=O)(=O)c1cc([N+](=O)[O-])ccc1Cl | 9.72%
CC(C)Oc1ccc(/C=N/NC(=O)C(CSCc2ccccc2)NC(=O)c2ccc([N+](=O)[O-])cc2)cc1 (stereo not shown) | 8.54%
CC(C)N1C[C@@]23C=C[C@@H](O2)C(C(=O)OCc2ccccc2)[C@H]3C1=O (stereo partly shown) | 9.24%
C=CCn1c(COc2ccc(F)cc2)nnc1SCC(=O)c1c[nH]c2c(CC)cccc12 | 7.05%
Cc1cc(C)c(NC(=O)NC(=O)c2ccc(F)cc2)c(C)n1 | -0.738%
FC(F)(F)c1ccc(CSc2nccn2-c2ccccc2)cc1 | 0.885%

SMILES | hERG current change (%, negative = inhibition) at 10uM
CC(C(=O)NCc1ccc2c(c1)OCO2)c1ccc([N+](=O)[O-])cc1 (stereo not shown) | -13.6%
O=C(CNC(=O)c1ccco1)Nc1ccncc1 | -5.14%
Cc1occc1C(=O)Nc1sccc1C(N)=O | 3.55%
O=C1OC2(O)C3C4C=CC(C4)C3C(=O)N2c2ccccc21 (stereo not shown) | 16.1%
CCC(C)[C@H]1CNCCN1CCc1cccc(F)c1 (stereo partly shown) | 4.5%
CCCNC(=O)Cn1cnc2sc(C(=O)N3CCN(CCC)CC3)c(C)c2c1=O | 2.73%
Cc1cccc(N(C(=O)CCC(=O)Nc2ccccn2)C(C(=O)NC(C)C)c2ccc(O)cc2)c1 (stereo not shown) | 11.1%
CCOC(=O)c1ccc(NC(=O)COc2cc(=O)n(CC)c3ccccc23)cc1 | 11.1%
Cc1ccccc1-n1nc(C(=O)O)c(C)c(C#N)c1=O | 9.37%
COc1cc(C(=O)Nc2ccccc2C(=O)NCc2cccnc2)cc(OC)c1OC | -0.227%
COc1ccc(Cc2nnc3c4cnn(C)c4ncn23)cc1 | -5.22%
Cc1cc(C)c2c(CC(=O)N3CCCC3)coc2c1 | 12.9%
O=C(O)/C(=C\c1ccc(-c2ccccc2[N+](=O)[O-])o1)c1ccccc1 | 23.6%
Cc1ccc2c(C)c(C(=O)N(C)C(C)c3ccncn3)oc2c1C (stereo not shown) | -9.41%
Fc1ccc(CNc2cnccn2)cc1 | 12.1%
CC1(C)CC2CC(C)(CN2C(=O)COC(=O)c2n[nH]c(=O)c3ccccc23)C1 (stereo not shown) | -19.9%
N#CC1=C(SCc2ccccc2)NC(=O)CC1c1ccccc1 (stereo not shown) | -8.81%
C=CCn1c(=O)c2ccccc2n2nnc(C(=O)OCC)c12 | 1.77%
Cc1ccc(CNC(=O)Cn2cnc(S(=O)(=O)N3CCC(C)CC3)c2)o1 | -62.1%
COc1ccc(OCCNc2cc(Cl)ccc2[N+](=O)[O-])cc1 | 9.2%
O=C(CN1C(=O)NC2(CCOc3ccccc32)C1=O)c1ccc(Br)cc1 (stereo not shown) | -19.5%
O=C(CCN1C(=O)/C(=C/c2ccccc2F)SC1=S)Nc1ccccn1 | -4.2%
